From PubChem BioAssay AID1768 (National Center for Advancing Translational Sciences (NCATS), 2009)
The whole screen tested about 270,000 compounds, of which about 620 (0.23%) were called active. Inconclusive means that the source gave no clear call. Such entries were picked first, then a sample of the others. Calls follow the shape of the dose curve; as a rule, active = well fitted inhibition curve with a large enough effect in the polarisation, with a control signal flat (not every such curve was filed as active); inconclusive = small, poorly fitted or top-dose-only effect, or effect the other way, or a change in a side signal; inactive = no such curve, though single readings can be large or run the other way; the % refers to the polarisation. Potencies of inconclusive entries are doubtful fits and often do not repeat. “Side channel” marks fits to a control or component signal instead of the main read-out.

These molecules were tested against Menin (Homo sapiens) (UniProt O00255) (assay: qHTS Assay for Inhibitors Targeting the Menin-MLL Interaction in MLL Related Leukemias: Competition With Texas Red Labeled MLL-derived Mutant Peptide). Settings: fluorescence polarization; series mostly up to 61.6 µM.
Potency is read from the fitted curve at half-maximal effect; tags tell the direction and shape of the fitted curve or compound fluorescence and quenching.

UniProt O00255, sequence (O00255 whole entry, looked up): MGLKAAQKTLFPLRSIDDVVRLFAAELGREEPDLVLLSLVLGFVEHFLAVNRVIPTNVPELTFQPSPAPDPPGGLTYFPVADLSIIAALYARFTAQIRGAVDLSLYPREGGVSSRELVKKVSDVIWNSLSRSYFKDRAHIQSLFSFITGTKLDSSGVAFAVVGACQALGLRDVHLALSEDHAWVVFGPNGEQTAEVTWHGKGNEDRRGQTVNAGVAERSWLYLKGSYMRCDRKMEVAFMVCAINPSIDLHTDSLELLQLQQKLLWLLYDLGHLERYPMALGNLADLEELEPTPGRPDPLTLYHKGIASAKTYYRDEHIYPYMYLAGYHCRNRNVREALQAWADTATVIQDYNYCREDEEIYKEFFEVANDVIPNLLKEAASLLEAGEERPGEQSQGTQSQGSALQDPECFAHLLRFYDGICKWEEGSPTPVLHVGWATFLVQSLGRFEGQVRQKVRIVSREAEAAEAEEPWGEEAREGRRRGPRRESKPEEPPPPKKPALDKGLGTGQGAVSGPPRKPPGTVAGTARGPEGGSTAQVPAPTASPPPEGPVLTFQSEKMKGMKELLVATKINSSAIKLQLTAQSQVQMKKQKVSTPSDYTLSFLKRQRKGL

Potency, inactive:
COc1ccc(CCn2c(=N)c(S(=O)(=O)c3ccccc3)cc3c(=O)n4ccccc4nc32)cc1
O=C(COC(=O)c1ccc[nH]c1=O)NCCc1ccc(F)cc1
Nc1cc(Cl)c(N)cc1Cl
Oc1ccc(NC(=S)N=Nc2c(O)[nH]c3ccccc23)cc1
CCSc1nnc(NC(=O)NC(CC)(C(F)(F)F)C(F)(F)F)s1
Cc1c(C(=O)NCCSCc2ccco2)cccc1[N+](=O)[O-]
COc1cccc(C(=O)N/N=C/c2ccc(Oc3ccc([N+](=O)[O-])cn3)c(OC)c2)c1

Potency, inconclusive:
CCOC(=O)C1(CCCc2ccccc2)CCN(C(=O)CCN2CCCCC2=O)CC1 1.78 µM [fluorescent, side channel, partial curve, poor fit]
COc1ccc(/C=N/NC(=S)Nc2ccccc2[N+](=O)[O-])cc1O 25.1 µM [quencher, side channel, partial curve]
CCN(c1ccccc1)S(=O)(=O)c1ccc(C(=O)Nc2nccs2)cc1 17.8 µM [quencher, side channel, partial curve]
Nc1nonc1-n1nnc(C(=O)O)c1-c1cccs1 0.794 µM [inhibitor, full curve, poor fit]
CC(=O)NNC(=O)c1[nH]c2ccc(Br)cc2c1-c1ccccc1 8.91 µM [quencher, side channel, full curve]
Nc1ccc(S(=O)(=O)Nc2nccc(/C=C/c3ccc([N+](=O)[O-])cc3)n2)cc1 25.1 µM [quencher, side channel, partial curve]
CCCCOc1ccc(N(CC(=O)NC(C)(C)CC)C(=O)CCC(=O)Nc2ccccn2)cc1 2.82 µM [fluorescent, side channel, full curve]
Nc1c(-c2cccc([N+](=O)[O-])c2)nc2ccccn12 17.8 µM [quencher, side channel, partial curve]
COc1ccc(-c2nc(NC(=O)c3ccccc3)sc2-c2ccc([N+](=O)[O-])cc2)cc1 14.1 µM [quencher, side channel, partial curve]
Cc1cc(C)cc(-n2ncc3c2CCCC3NC(=O)c2csnn2)c1 (stereo unspecified) 22.4 µM [fluorescent, side channel, partial curve]
O=C(Cc1ccccc1)Nc1ccc(S(=O)(=O)N2CCCC2)cc1 39.8 µM [quencher, side channel, single point]
CCOc1ccc(NC(=O)C2CCCN(S(=O)(=O)c3ccc4[nH]c(=O)ccc4c3)C2)cc1 (stereo unspecified) 39.8 µM [fluorescent, side channel, single point]
CCOC(=O)Cc1csc(NC(=O)Nc2cccs2)n1 28.2 µM [quencher, side channel, single point]
COCCNC(=O)C(c1ccc(C)o1)N(C(=O)c1snc(C(N)=O)c1N)c1ccc(C)c(C)c1 (stereo unspecified) 28.2 µM [fluorescent, side channel, single point]
CC(=O)Nc1cccc(NC(=O)c2cccc(-c3ccc(O)cc3)c2)c1 22.4 µM [quencher, side channel, single point]
CN(C)c1ccc(C2(c3ccc(N(C)C)cc3)OC(=O)c3cc(N)ccc32)cc1 31.6 µM [quencher, side channel, single point]
Cc1nc(-c2coc3c(CN(C)C)c(O)ccc3c2=O)cs1 39.8 µM [quencher, side channel, single point]
C#C[C@]1(OC(C)=O)CCC2C3CCC4=CC(=O)CCC4C3CC[C@]21C (stereo partly specified) 7.94 µM [inhibitor, full curve]
COc1cc([N+](=O)[O-])cc(/C=N/NC(=O)C(O)(c2ccccc2)c2ccccc2)c1O 11.2 µM [quencher, side channel, partial curve]
Cc1ccc(NC(=O)Cn2ncc3c([nH]c4ccccc43)c2=O)cc1Cl 39.8 µM [fluorescent, side channel, single point]
COc1ccc2occ(C(=O)c3cccs3)c2c1 35.5 µM [quencher, side channel, single point]
Cc1cccc(N2CCc3c2nc2ccc(Br)cc2c3N)c1 15.8 µM [quencher, side channel, partial curve]
COC(=O)c1ccccc1NC(=O)Cn1nnc(-c2ccc3c(c2)OCO3)n1 35.5 µM [fluorescent, side channel, single point]
O=[N+]([O-])c1cccc(CSC2=NCCN2S(=O)(=O)c2ccccc2)c1 22.4 µM [quencher, side channel, single point]
Cc1ccc2cc(C)c(N3CCN(c4ccc(F)cc4)CC3)nc2c1 39.8 µM [inhibitor, partial curve, poor fit]
O=C(c1ccccc1)c1cc2cc(Cl)ccc2[nH]1 39.8 µM [inhibitor, single point]
COC(=O)Cc1ccc(OCC(=O)Nc2ccc(OC(F)(F)F)cc2)cc1 35.5 µM [inhibitor, single point]
O=C(O)CSc1ncnc2c1oc1ccccc12 39.8 µM [inhibitor, single point]
Cc1ccc(CC(=O)Nc2ccc(OC(F)F)c(Cl)c2)cc1C 28.2 µM [quencher, side channel, single point]
CC1CCCN(S(=O)(=O)c2ccc(C(=O)Nc3nnc(-c4ccncc4)o3)cc2)C1 (stereo unspecified) 10 µM [quencher, side channel, partial curve]
COc1ccc2[nH]c3c(NCCC4=CCCCC4)ncnc3c2c1 20 µM [quencher, side channel, partial curve]
C/C(=N\Nc1nc2ccccc2[nH]1)c1cc2ccccc2o1 31.6 µM [quencher, side channel, single point]
N/C(=N\N=C\c1cccs1)SC1CC(=O)N(c2cccc([N+](=O)[O-])c2)C1=O (stereo unspecified) 7.94 µM [quencher, side channel, partial curve]
Cc1cc(OCC(O)CN2CCc3ccccc3C2)cc(C(C)C)c1 (stereo unspecified) 22.4 µM [fluorescent, side channel, partial curve]
CCCCC(=O)Nc1ccc2c(c1)nc1n2CCSC1 39.8 µM [inhibitor, single point]
Nc1nc(CSC(=S)N2CCOCC2)nc(Nc2ccc(F)cc2)n1 31.6 µM [quencher, side channel, single point]
Cc1ccc(CCNC(=O)CCS(=O)(=O)c2cc3c(cc2C)NC(=O)CO3)cc1 39.8 µM [fluorescent, side channel, single point]
Cc1ccc(/C=N/Nc2ccc(C(=O)O)cc2)s1 25.1 µM [quencher, side channel, partial curve]
CCC(C)C(NC(=O)OCc1ccccc1)C(=O)NCC(c1ccccc1)N(C)C (stereo unspecified) 1.12 µM [fluorescent, side channel, full curve, poor fit]
CCOC(=O)Cn1c(-c2cccnc2)nc(-c2ccccc2)c1-c1ccccc1 7.08 µM [fluorescent, side channel, partial curve]
Cn1c(=O)cc(OCCCC(=O)N2CCN(Cc3ccc4c(c3)OCO4)CC2)c2ccccc21 22.4 µM [fluorescent, side channel, partial curve]
Cc1c(CCOC(=O)C23CC4(C)CC(C)(CC(C)(C4)C2)C3)sc[n+]1CC(=O)c1ccccc1 7.08 µM [fluorescent, side channel, full curve]
CCOC(=O)c1ccc2c(c1)nc(-c1ccccn1)n2CC 8.91 µM [quencher, side channel, single point]
Cc1ccc(S(=O)(=O)Nc2cc(Cl)c(O)c3ncccc23)cc1 17.8 µM [quencher, side channel, partial curve]
CCOP(=O)(c1ccc(N(C)C)cc1)C(O)c1ccc(C)cc1 (stereo unspecified) 31.6 µM [inhibitor, partial curve]
COc1ccc(N=C2C(=Nc3ccc(OC)cc3)N(c3ccccc3)C(=S)N2C(=O)c2ccc(Cl)cc2)cc1 11.2 µM [quencher, side channel, partial curve]
Fc1ccc(C(c2nnnn2C2CCCCC2)N2CCCC2)cc1 (stereo unspecified) 28.2 µM [fluorescent, side channel, single point]
CCCc1ccc(-c2cc(NC(=O)CSc3nnc(N)s3)n(-c3ccccc3)n2)cc1 10 µM [quencher, side channel, partial curve]
Cc1ccccc1OCC(=O)OCC(=O)Nc1ccc(S(N)(=O)=O)cc1 28.2 µM [quencher, side channel, single point]
